Experimental data: PMC9911399, “Two distinct binding modes provide the RNA-binding protein RbFox with extraordinary sequence specificity”
Residue numbers refer to the chain shown, from its start. The list shows a part of the results.

B1: AAAUUGA (DNA:RNA)
RNA: GGGAGACCGGAAUUCAGAUUGUCCAAAUUGAUUAAAUCCCGUCGUAGCCACCA
DNA 1: CAATCTGAATTCCGGTCTCCC
DNA 2: TGGTGGCTACGACGGGATT
B2: CAUAAAG (DNA:RNA)
RNA: B1 RNA with A25C, A27U, U28A, U29A, G30A, A31G
DNA 1: CAATCTGAATTCCGGTCTCCC
DNA 2: TGGTGGCTACGACGGGATT
B3: GAGCACU (DNA:RNA)
RNA: B1 RNA with A25G, A27G, U28C, U29A, G30C, A31U
DNA 1: CAATCTGAATTCCGGTCTCCC
DNA 2: TGGTGGCTACGACGGGATT
B4: GCACGGA (DNA:RNA)
RNA: B1 RNA with A25G, A26C, U28C, U29G
DNA 1: CAATCTGAATTCCGGTCTCCC
DNA 2: TGGTGGCTACGACGGGATT
B5: AUCACCG (DNA:RNA)
RNA: B1 RNA with A26U, A27C, U28A, U29C, G30C, A31G
DNA 1: CAATCTGAATTCCGGTCTCCC
DNA 2: TGGTGGCTACGACGGGATT
B6: CCACCUC (DNA:RNA)
RNA: B1 RNA with A25C, A26C, U28C, U29C, G30U, A31C
DNA 1: CAATCTGAATTCCGGTCTCCC
DNA 2: TGGTGGCTACGACGGGATT
B7: GCCGUGA (DNA:RNA)
RNA: B1 RNA with A25G, A26C, A27C, U28G
DNA 1: CAATCTGAATTCCGGTCTCCC
DNA 2: TGGTGGCTACGACGGGATT
B8: GAGCCGG (DNA:RNA)
RNA: B1 RNA with A25G, A27G, U28C, U29C, A31G
DNA 1: CAATCTGAATTCCGGTCTCCC
DNA 2: TGGTGGCTACGACGGGATT
B9: UCACUGG (DNA:RNA)
RNA: B1 RNA with A25U, A26C, U28C, A31G
DNA 1: CAATCTGAATTCCGGTCTCCC
DNA 2: TGGTGGCTACGACGGGATT

Target: T1, RBFOX1 RRM RbFoxmut (Fox-RRM*) (Homo sapiens, UniProt Q9NWB1 109-208, R118D;E147R;N151S;E152T)
T1 sequence: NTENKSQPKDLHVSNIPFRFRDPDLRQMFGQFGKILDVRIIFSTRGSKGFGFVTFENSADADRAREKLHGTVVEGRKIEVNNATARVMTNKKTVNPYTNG
Test: EMSA; HiTS-Eq, 1 nM pool, 10 min; buffer printed only for the single-RNA assays: 10 mM Tris pH 7.5, 150 mM NaCl, 3.4 mM EDTA, 0.001% NP-40, 30 C
Conditions: tags: His6 N-terminal (pET28a); label: 5' 32P
Method in brief: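 Relative association constants, normalised to the cognate motif, were derived by comparing read counts of each RNA species with those of the control reaction. The RNA sequenced was the free fraction, separated by 8% native PAGE after a 10 min equilibration in 50 µL of 1 nM 5′-radiolabelled RNA (7 randomized nucleotides) with increasing concentrations of purified wild-type or mutant RbFox RRM.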

Binder	binding signal
B1	0.0726 KA relative to UGCAUGU
B2	0.0993 KA relative to UGCAUGU
B3	0.0629 KA relative to UGCAUGU
B4	0.107 KA relative to UGCAUGU
B5	0.117 KA relative to UGCAUGU
B6	0.0707 KA relative to UGCAUGU
B7	0.102 KA relative to UGCAUGU
B8	0.0694 KA relative to UGCAUGU
B9	0.0879 KA relative to UGCAUGU
